Values joined by “and” are separate entries in the source; they are usually repeats but may differ in a detail not shown here. Identical values can stand only once. Among all 420,000 compounds or so, about 64,000 (15%) were called active. Inconclusive means that the source gave no clear call. Such entries were picked first, then a sample of the others. Calls come from the whole dose curve; as a rule, active = well fitted inhibition curve with a large enough effect; inconclusive = small, poorly fitted or top-dose-only effect; inactive = flat fitted curve, though single readings scatter. A potency beside an inconclusive call is a rough fit, not a confirmed value.
test: qHTS for Inhibitors of human tyrosyl-DNA phosphodiesterase 1 (TDP1): qHTS in cells in absence of CPT; conditions: DT40 Tdp1-/- hTDP1 cells, no CPT, ATP luminescence, 48 h; activity change, negative = growth inhibition: at 46.2 µM (top of the series) unless noted; note: nearly all actives have a fitted effect of over 55% in size
Summary of the method: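 DT40 Tdp1-/-;hTDP1 cells, no CPT (DMSO vehicle only), 400 cells/well; compounds pin-transferred; ≥48 hr, 37 °C; CellTiter-Glo 30 min RT dark, luminescence read.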
% is set by controls: 0 for no effect and ±100 for the full control effect; potency is the fitted concentration of half-maximal effect; tags give direction and shape of the fitted curve.

Row | SMILES | Potency | activity change, negative = growth inhibition
1 | O=C(NCC(c1cccs1)N1CCOCC1)c1ccc(Cl)c([N+](=O)[O-])c1 (stereo unspecified) | inconclusive: 20.6 µM [inhibitor, single point] | –
2 | COc1ccc(NC(=O)CN2CCC(Cc3ccccc3)CC2)cc1S(=O)(=O)N1CCOCC1 | inconclusive: 14.6 µM [inhibitor, partial curve, poor fit] | –
3 | CCOC(=O)c1c(NC(=O)CSc2nnc(Cc3ccccc3)o2)sc(C)c1C | inconclusive: 11.6 µM [inhibitor, partial curve] | –
4 | Cc1cc(C)c(O)c(-c2cc(C(=O)Nc3cccnc3)[nH]n2)c1 | inconclusive: 20.6 µM [inhibitor, partial curve] | –
5 | CN(C)c1ccc(NC(=O)Cn2cc(S(=O)(=O)Cc3cccc(Cl)c3)c3ccccc32)cc1 | inconclusive: 8.2 µM [inhibitor, partial curve, poor fit] | –
6 | O=C(CCCOc1ccccc1)Nc1ccc(Cl)cn1 | – | inactive: -10.7%
7 | CSc1nnc(N2C(=O)C(O)=C(C(=O)c3ccco3)C2c2ccccc2)s1 (stereo unspecified) | inconclusive: 23.1 µM [inhibitor, single point] | –
8 | Cc1nc2scc(C)n2c(=O)c1S(=O)(=O)N1CCN(c2cccc(C(F)(F)F)c2)CC1 | inconclusive: 16.4 µM [inhibitor, single point] and inconclusive: 20.6 µM [inhibitor, partial curve] | –
9 | N#Cc1c2n(c3c(=O)n(CC(=O)c4ccc(Br)cc4)cnc13)CCCC2 | inconclusive: 14.6 µM [inhibitor, single point] | –
10 | COc1cc(Cn2c3ccc(NC(=O)CCc4ccccc4)cc3c(=O)n2C)ccc1F | active: 2.91 µM | –
11 | Cc1ccc2c(c1)N(CC(=O)NCC(C)c1ccccc1)C(=O)c1cccnc1O2 (stereo unspecified) | inconclusive: 9.2 µM [inhibitor, partial curve] | –
12 | COc1ccc2[nH]c(=O)c(-c3nnn(-c4ccccc4)n3)cc2c1 | inconclusive: 23.1 µM [inhibitor, single point] | –
13 | CCn1cc(C(=O)OCC(=O)Nc2ccccc2OC(F)F)c(=O)c2ccc(C)nc21 | inconclusive: 29.1 µM [inhibitor, single point] | –
14 | O=C(COC(=O)c1cccc(Cl)c1)Nc1cc(Cl)ccc1Oc1ccccc1 | inconclusive: 29.1 µM [inhibitor, single point] | –
15 | Cc1ccc(C2C(C#N)=C(N)SC(N)=C2C#N)cc1 | inconclusive: 16.4 µM [inhibitor, single point] | –
16 | CCCCSc1oc(-c2ccco2)nc1S(=O)(=O)c1ccccc1 | inconclusive: 16.4 µM [inhibitor, single point] | –

From PubChem BioAssay AID686978 (National Center for Advancing Translational Sciences (NCATS), 2013)
